# In the supplement of paper PMC8728848:
# The other results are listed elsewhere or left out.
# B1: Sebin1 (Coprinopsis cinerea), A8PEE3 (protein)
# chain: MTSPFYAHIHNVQDDNTWRFTLIFANRATADEWWRAISEAPANTSIAKSITRVTPQYYTHDVNIWNIWNFFADGNIKSISERFRGRLFIVLENDRGGRGITVIPPVPIVDHVSGNWFYIRSKTAPHLFWYYDERRSSIYASKEKRTRFKISIRNPSSQTPKNAIMINTDDVTIHIKENLYVGVDNNLGHIIPTRAYRTFKFGELESGAIAGFDVVENIEERCSSTFDGASLSISGPDSSSPGEPWELV
# What was measured:
# Experiment in all cases: glycan array binding signal (z-score within array); higher = stronger binding
# Settings in all cases: glycan notation: IUPAC condensed, linker removed
# [1] = target: Fuc(a1-2)Gal(b1-4)[Fuc(a1-3)]GlcNAc
# Method in brief: (§1)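 Glycan array data were curated from 3228 arrays in the Consortium for Functional Glycomics database and kept only where the protein sequence was available. Glycan names were converted to IUPAC-condensed notation, and columns mapping to the same glycan were averaged. The binding signal is a within-array Z-score, averaged across arrays of the same protein sequence at different concentrations or buffers and across linkers. Negative Z-scores can be read as non-binding.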
# [2] = target: Fuc(a1-2)Gal(b1-4)[Fuc(a1-3)]GlcNAc(b1-2)Man(a1-3)[Fuc(a1-2)Gal(b1-4)[Fuc(a1-3)]GlcNAc(b1-2)Man(a1-6)]Man(b1-4)GlcNAc(b1-4)[Fuc(a1-6)]GlcNAc
# Method in brief: as §1
# [3] = target: Fuc(a1-2)Gal(b1-4)[Fuc(a1-3)]GlcNAc(b1-2)[Fuc(a1-2)Gal(b1-4)[Fuc(a1-3)]GlcNAc(b1-4)]Man(a1-3)[Fuc(a1-2)Gal(b1-4)[Fuc(a1-3)]GlcNAc(b1-2)Man(a1-6)]Man(b1-4)GlcNAc(b1-4)GlcNAc
# Method in brief: as §1
# [4] = target: Fuc(a1-2)Gal(b1-4)[Fuc(a1-3)]GlcNAc(b1-3)Gal(b1-4)[Fuc(a1-3)]GlcNAc
# Method in brief: as §1
# [5] = target: Fuc(a1-2)Gal(b1-4)[Fuc(a1-3)]GlcNAc(b1-3)Gal(b1-4)[Fuc(a1-3)]GlcNAc(b1-3)Gal(b1-4)[Fuc(a1-3)]GlcNAc
# Method in brief: as §1
# [6] = target: Fuc(a1-2)Gal(b1-4)[Fuc(a1-3)]GlcNAc(b1-3)GalNAc
# Method in brief: as §1
# [7] = target: Fuc(a1-2)Gal(b1-4)[Fuc(a1-3)]GlcNAc(b1-3)[Neu5Ac(a2-6)Gal(b1-4)GlcNAc(b1-6)]Gal(b1-4)Glc
# Method in brief: as §1
# [8] = target: Fuc(a1-2)Gal3S(b1-4)GlcNAc
# Method in brief: as §1
# [9] = target: Fuc(a1-2)Gal6S(b1-3)GlcNAc
# Method in brief: as §1
# [10] = target: Fuc(a1-2)Gal6S(b1-3)GlcNAc6S
# Method in brief: as §1
# Fuc(a1-2)Gal6S(b1-4)Glc = target: Fuc(a1-2)Gal6S(b1-4)Glc
# Method in brief: as §1
# [11] = target: Fuc(a1-2)Gal6S(b1-4)Glc6S
# Method in brief: as §1
# Fuc(a1-2)[Gal(a1-3)]Gal = target: Fuc(a1-2)[Gal(a1-3)]Gal
# Method in brief: as §1
# [12] = target: Fuc(a1-2)[Gal(a1-3)]Gal(b1-3)GalNAc
# Method in brief: as §1
# [13] = target: Fuc(a1-2)[Gal(a1-3)]Gal(b1-3)GalNAc(b1-3)Gal(a1-4)Gal(b1-4)Glc
# Method in brief: as §1
# [14] = target: Fuc(a1-2)[Gal(a1-3)]Gal(b1-3)GlcNAc
# Method in brief: as §1
# [15] = target: Fuc(a1-2)[Gal(a1-3)]Gal(b1-3)GlcNAc(b1-2)Man(a1-3)[Fuc(a1-2)[Gal(a1-3)]Gal(b1-3)GlcNAc(b1-2)Man(a1-6)]Man(b1-4)GlcNAc(b1-4)GlcNAc
# Method in brief: as §1
# [16] = target: Fuc(a1-2)[Gal(a1-3)]Gal(b1-3)GlcNAc(b1-2)Man(a1-3)[Fuc(a1-2)[Gal(a1-3)]Gal(b1-3)GlcNAc(b1-2)Man(a1-6)]Man(b1-4)GlcNAc(b1-4)[Fuc(a1-6)]GlcNAc
# Method in brief: as §1
# [17] = target: Fuc(a1-2)[Gal(a1-3)]Gal(b1-3)GlcNAc(b1-3)GalNAc
# Method in brief: as §1
# [18] = target: Fuc(a1-2)[Gal(a1-3)]Gal(b1-3)GlcNAc(b1-6)GalNAc
# Method in brief: as §1
# [19] = target: Fuc(a1-2)[Gal(a1-3)]Gal(b1-4)Glc
# Method in brief: as §1
# [20] = target: Fuc(a1-2)[Gal(a1-3)]Gal(b1-4)GlcNAc
# Method in brief: as §1
# [21] = target: Fuc(a1-2)[Gal(a1-3)]Gal(b1-4)GlcNAc(b1-2)Man
# Method in brief: as §1
# [22] = target: Fuc(a1-2)[Gal(a1-3)]Gal(b1-4)GlcNAc(b1-2)Man(a1-3)[Fuc(a1-2)[Gal(a1-3)]Gal(b1-4)GlcNAc(b1-2)Man(a1-6)]Man(b1-4)GlcNAc(b1-4)GlcNAc
# Method in brief: as §1
# [23] = target: Fuc(a1-2)[Gal(a1-3)]Gal(b1-4)GlcNAc(b1-2)Man(a1-3)[Fuc(a1-2)[Gal(a1-3)]Gal(b1-4)GlcNAc(b1-2)Man(a1-6)]Man(b1-4)GlcNAc(b1-4)[Fuc(a1-6)]GlcNAc
# Method in brief: as §1
# [24] = target: Fuc(a1-2)[Gal(a1-3)]Gal(b1-4)GlcNAc(b1-3)GalNAc
# Method in brief: as §1
# [25] = target: Fuc(a1-2)[Gal(a1-3)]Gal(b1-4)GlcNAc(b1-3)[Fuc(a1-2)[Gal(a1-3)]Gal(b1-4)GlcNAc(b1-6)]GalNAc
# Method in brief: as §1
# [26] = target: Fuc(a1-2)[Gal(a1-3)]Gal(b1-4)GlcNAc(b1-6)GalNAc
# Method in brief: as §1
# [27] = target: Fuc(a1-2)[Gal(a1-3)]Gal(b1-4)[Fuc(a1-3)]Glc
# Method in brief: as §1
# [28] = target: Fuc(a1-2)[Gal(a1-3)]Gal(b1-4)[Fuc(a1-3)]GlcNAc
# Method in brief: as §1
# [29] = target: Fuc(a1-2)[Gal(a1-3)]Gal(b1-4)[Fuc(a1-3)]GlcNAc(b1-3)GalNAc
# Method in brief: as §1
# [30] = target: Fuc(a1-2)[Gal(a1-4)]Gal(b1-4)GlcNAc
# Method in brief: as §1
# [31] = target: Fuc(a1-2)[GalNAc(a1-3)]Gal
# Method in brief: as §1
# [32] = target: Fuc(a1-2)[GalNAc(a1-3)]Gal(b1-3)GalNAc(a1-3)[Fuc(a1-2)]Gal(b1-4)GlcNAc
# Method in brief: as §1
# [33] = target: Fuc(a1-2)[GalNAc(a1-3)]Gal(b1-3)GalNAc(b1-3)Gal(a1-4)Gal(b1-4)Glc
# Method in brief: as §1
# [34] = target: Fuc(a1-2)[GalNAc(a1-3)]Gal(b1-3)GlcNAc
# Method in brief: as §1
# [35] = target: Fuc(a1-2)[GalNAc(a1-3)]Gal(b1-3)GlcNAc(b1-2)Man(a1-3)[Fuc(a1-2)[GalNAc(a1-3)]Gal(b1-3)GlcNAc(b1-2)Man(a1-6)]Man(b1-4)GlcNAc(b1-4)GlcNAc
# Method in brief: as §1
# [36] = target: Fuc(a1-2)[GalNAc(a1-3)]Gal(b1-3)GlcNAc(b1-2)Man(a1-3)[Fuc(a1-2)[GalNAc(a1-3)]Gal(b1-3)GlcNAc(b1-2)Man(a1-6)]Man(b1-4)GlcNAc(b1-4)[Fuc(a1-6)]GlcNAc
# Method in brief: as §1
binder,measurement,setting,value
B1,glycan array binding signal (z-score),[1],-0.485
same,glycan array binding signal (z-score),[2],-0.24
same,glycan array binding signal (z-score),[3],-0.182
same,glycan array binding signal (z-score),[4],-0.115
same,glycan array binding signal (z-score),[5],0.072
same,glycan array binding signal (z-score),[6],0.966
same,glycan array binding signal (z-score),[7],0.315
same,glycan array binding signal (z-score),[8],-0.455
same,glycan array binding signal (z-score),[9],-0.238
same,glycan array binding signal (z-score),[10],0.963
same,glycan array binding signal (z-score),Fuc(a1-2)Gal6S(b1-4)Glc,-0.556
same,glycan array binding signal (z-score),[11],0.002
same,glycan array binding signal (z-score),Fuc(a1-2)[Gal(a1-3)]Gal,-0.114
same,glycan array binding signal (z-score),[12],-0.147
same,glycan array binding signal (z-score),[13],-0.064
same,glycan array binding signal (z-score),[14],-0.29
same,glycan array binding signal (z-score),[15],-0.262
same,glycan array binding signal (z-score),[16],2.8
same,glycan array binding signal (z-score),[17],0.3
same,glycan array binding signal (z-score),[18],-0.225
same,glycan array binding signal (z-score),[19],-0.318
same,glycan array binding signal (z-score),[20],-0.369
same,glycan array binding signal (z-score),[21],-0.672
same,glycan array binding signal (z-score),[22],-0.234
same,glycan array binding signal (z-score),[23],0.423
same,glycan array binding signal (z-score),[24],-0.229
same,glycan array binding signal (z-score),[25],3.52
same,glycan array binding signal (z-score),[26],-0.194
same,glycan array binding signal (z-score),[27],-0.683
same,glycan array binding signal (z-score),[28],-0.054
same,glycan array binding signal (z-score),[29],0.859
same,glycan array binding signal (z-score),[30],-0.539
same,glycan array binding signal (z-score),[31],-0.458
same,glycan array binding signal (z-score),[32],-0.485
same,glycan array binding signal (z-score),[33],-0.203
same,glycan array binding signal (z-score),[34],-0.296
same,glycan array binding signal (z-score),[35],-0.084
same,glycan array binding signal (z-score),[36],0.753
